According to patent US6235872A, “Proapoptotic peptides dependence polypeptides and methods of use” (The Burnham Institute, priority 1998, dated 2001):
At least one peptide structure holds a part that was inferred or is arguable (an end, a ring closure or a residue). Some entries repeat one wording, which the source may state once for all of them. Where a SMILES comes first, the peptide text is derived from it. Where no end group is shown, it is not given here.

How the values were obtained:
[1] = system: SH-SY5Y human neuroblastoma cells; test: Cell death by tat-linked peptides and mutated variants in SH-SY5Y cells (FIG. 2); assay type: cell-based; conditions: for apoptotic activity in SH-SY5Y cells: tat-linked peptides, FIG. 2
Procedure: To further analyze the effect of particular point mutations on apoptosis, additional studies employing dependence peptides and mutated variants linked to tat were performed in SH-SY5Y cells. The results shown in FIG. 2 are of studies in which quadruplicate samples were averaged, and the studies were repeated 2 to 10 times for each peptide. Each column represents the percentage cell death and the bars indicate the standard error. The amount of peptide added to the cells is indicated above each column.

[2] = system: mitochondria; test: Cytochrome c release from mitochondria, Western blot (FIG. 3B); assay type: biochemical, rats; conditions: 385 μM peptide, 1 hour, 37° C.
[3] = system: NTera 2, R2, CSM14.1, LNCaP, SH-SY5Y and PC12 NRA5 cells; test: Induction of cell death by peptides added to cells (propidium iodide, Table 1); assay type: cell-based; conditions: for Effect on apoptosis: peptide 50 μM and 100 μM in serum free medium, 18 hours, propidium iodide
Procedure: A region of a dependence polypeptide that mediates apoptosis in cells was analyzed for its ability to stimulate apoptosis in cells. […] The effect of replacing leucine with lysine at position 7 (purple, […]; SEQ ID NO:41; tat-purple, tat-GG-[…]; SEQ ID NO:42), removing the carboxy-terminal "RRI" sequence (gray, SATLDALLAAL; SEQ ID NO:43; tat-gray, tat-GG--SATLDALLAAL; SEQ ID NO:44) or amino-terminal "SATLD" sequence (green; […]; SEQ ID NO:45) on the proapoptotic activity of a dependence peptide was examined. […] The 12 amino acid HIV tat protein fragment ([…]; SEQ ID NO:52; hereinafter termed "tat"), which facilitates cellular entry, also was included on the amino terminus of some of the peptides tested. […] For convenience, the hyphen in the above amino acid sequences is a nomenclature intended to set apart the proapoptotic dependence peptides and variants thereof or control peptides from other amino acid residues contained in the peptide.

| Molecule | apoptotic activity in SH-SY5Y cells [1] | Effect on apoptosis [3] | also measured |
| --- | --- | --- | --- |
| GRKKRRQRRRPPGGDLSLARLATARLAI [tat-yellow, reference compound] | did not | None | cytochrome c release by mitochondria [2]: did not stimulate cytochrome c release |
| GRKKRRQRRRPPGGSATLQALLAALRRI | retained most of its apoptotic function | – | SH-SY5Y cells killed as compared to tat-GG-SATLDALLAALRRI ([1]; relative to tat-GG-SATLDALLAALRRI): 70% |
| SATLDALLAAL [Gray, SATLDALLAAL] | – | None | Effect on apoptosis ([3]; listed as gray): incapable of stimulating apoptosis |
| KDRNLRRITRMVLV [Turquoise, reference compound] | – | None | cytochrome c release by mitochondria [2]: did not stimulate cytochrome c release; Effect on apoptosis ([3]; listed as turquoise): did not undergo apoptosis |
| GRKKRRQRRRPPGGQQQQQQQQQQQQQQ [tat-GG-Q14] | – | Apoptotic | – |
| GRKKRRQRRRPPGGSATLDALLAALEEI | abolished the ability of the peptide to induce apoptosis | – | – |
| CC[C@H](C)[C@H](NC(=O)[C@H](CS)NC(=O)[C@H](Cc1ccccc1)NC(=O)[C@H](CCC(=O)O)NC(=O)[C@H](CCCNC(=N)N)NC(=O)[C@H](Cc1ccccc1)NC(=O)[C@H](CS)NC(=O)[C@H](CCCNC(=N)N)NC(=O)[C@H](CCCCN)NC(=O)[C@H](Cc1ccccc1)NC(=O)[C@H](CC(N)=O)NC(=O)[C@H](CCC(=O)O)NC(=O)[C@H](CC(=O)O)NC(=O)[C@@H](N)CC(C)C)C(=O)O [Red, reference compound] (H-LDENFKRCFREFCI-OH) | – | None | Effect on apoptosis ([3]; listed as red): did not undergo apoptosis |
| GRKKRRQRRRPPGGSATLDALLAAL [tat-gray, tat-GG-SATLDALLAAL] | did not | None | – |
| GRKKRRQRRRPPGGKDRNLRRITRMVLV [tat-turquoise, reference compound] | did not | None | – |
| SATLDAKLAALRRI [Purple] | – | None | Effect on apoptosis ([3]; listed as purple): incapable of stimulating apoptosis |
| GRKKRRQRRRPPGGSATLDALLAALRRI [tat-blue] | exhibited apoptotic activity | Apoptotic | cytochrome c release by mitochondria [2]: stimulated; increase in apoptosis compared to the dependence peptide lacking the tat sequence ([3]; tat-linked peptide versus peptide alone): 30 fold |
| ALLAALRRI [Green] | – | None | Effect on apoptosis ([3]; listed as green): incapable of stimulating apoptosis |
| GRKKRRQRRRPPGGSATLDAKLAALRRI [tat-purple] | did not | None | cytochrome c release by mitochondria [2]: did not stimulate cytochrome c release |
| GRKKRRQRRRPPGGSATLDALLAALRGI | very little effect on the ability of the peptide to stimulate apoptosis | – | – |
| GRKKRRQRRRPPGGSATLDALLAALGGI | – | – | decrease of the ability to stimulate SH-SY5Y cell death ([1]; relative to unmutated tat-GG-SATLDALLAALRRI): 70% |
